# Source: publication PMC9911399, “Two distinct binding modes provide the RNA-binding protein RbFox with extraordinary sequence specificity”
# Where a chain is given by its changes, count along the chain named. The list shows a part of the results.
# T1: RBFOX1 RRM (Homo sapiens, UniProt Q9NWB1 109-208)
# T1 sequence: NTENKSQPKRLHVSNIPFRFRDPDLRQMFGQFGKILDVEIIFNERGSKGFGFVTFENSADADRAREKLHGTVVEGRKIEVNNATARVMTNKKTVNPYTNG
# B1: GGCGCCC (DNA:RNA)
# RNA: GGGAGACCGGAAUUCAGAUUGUCCGGCGCCCUUAAAUCCCGUCGUAGCCACCA
# DNA 1: CAATCTGAATTCCGGTCTCCC
# DNA 2: TGGTGGCTACGACGGGATT
# B2: CUGUAUA (DNA:RNA)
# RNA: GGGAGACCGGAAUUCAGAUUGUCCCUGUAUAUUAAAUCCCGUCGUAGCCACCA
# DNA 1: CAATCTGAATTCCGGTCTCCC
# DNA 2: TGGTGGCTACGACGGGATT
# B3: GCAGGCA (DNA:RNA)
# RNA: B1 RNA with G26C, C27A, C29G, C31A
# DNA 1: CAATCTGAATTCCGGTCTCCC
# DNA 2: TGGTGGCTACGACGGGATT
# B4: GUGAUCU (DNA:RNA)
# RNA: B2 RNA with C25G, U28A, A29U, U30C, A31U
# DNA 1: CAATCTGAATTCCGGTCTCCC
# DNA 2: TGGTGGCTACGACGGGATT
# B5: ACGAUAU (DNA:RNA)
# RNA: B2 RNA with C25A, U26C, U28A, A29U, U30A, A31U
# DNA 1: CAATCTGAATTCCGGTCTCCC
# DNA 2: TGGTGGCTACGACGGGATT
# B6: UGAUAUU (DNA:RNA)
# RNA: B2 RNA with C25U, U26G, G27A, A31U
# DNA 1: CAATCTGAATTCCGGTCTCCC
# DNA 2: TGGTGGCTACGACGGGATT
# B7: AUUUUUA (DNA:RNA)
# RNA: B2 RNA with C25A, G27U, A29U
# DNA 1: CAATCTGAATTCCGGTCTCCC
# DNA 2: TGGTGGCTACGACGGGATT
# B8: UAUGGAA (DNA:RNA)
# RNA: B2 RNA with C25U, U26A, G27U, U28G, A29G, U30A
# DNA 1: CAATCTGAATTCCGGTCTCCC
# DNA 2: TGGTGGCTACGACGGGATT
# B9: GGUAAGG (DNA:RNA)
# RNA: B1 RNA with C27U, G28A, C29A, C30G, C31G
# DNA 1: CAATCTGAATTCCGGTCTCCC
# DNA 2: TGGTGGCTACGACGGGATT
# B10: GGGACAG (DNA:RNA)
# RNA: B1 RNA with C27G, G28A, C30A, C31G
# DNA 1: CAATCTGAATTCCGGTCTCCC
# DNA 2: TGGTGGCTACGACGGGATT
# B11: UAACCCA (DNA:RNA)
# RNA: B1 RNA with G25U, G26A, C27A, G28C, C31A
# DNA 1: CAATCTGAATTCCGGTCTCCC
# DNA 2: TGGTGGCTACGACGGGATT
# B12: CAGUCCU (DNA:RNA)
# RNA: B2 RNA with U26A, A29C, U30C, A31U
# DNA 1: CAATCTGAATTCCGGTCTCCC
# DNA 2: TGGTGGCTACGACGGGATT
# B13: CACGGUG (DNA:RNA)
# RNA: B2 RNA with U26A, G27C, U28G, A29G, A31G
# DNA 1: CAATCTGAATTCCGGTCTCCC
# DNA 2: TGGTGGCTACGACGGGATT
# B14: GAUUUAG (DNA:RNA)
# RNA: B2 RNA with C25G, U26A, G27U, A29U, U30A, A31G
# DNA 1: CAATCTGAATTCCGGTCTCCC
# DNA 2: TGGTGGCTACGACGGGATT
# B15: GCGAUAG (DNA:RNA)
# RNA: B2 RNA with C25G, U26C, U28A, A29U, U30A, A31G
# DNA 1: CAATCTGAATTCCGGTCTCCC
# DNA 2: TGGTGGCTACGACGGGATT
# B16: GUGGACC (DNA:RNA)
# RNA: B1 RNA with G26U, C27G, C29A
# DNA 1: CAATCTGAATTCCGGTCTCCC
# DNA 2: TGGTGGCTACGACGGGATT
# B17: CAGGACC (DNA:RNA)
# RNA: B2 RNA with U26A, U28G, U30C, A31C
# DNA 1: CAATCTGAATTCCGGTCTCCC
# DNA 2: TGGTGGCTACGACGGGATT
# B18: GUACCUG (DNA:RNA)
# RNA: B2 RNA with C25G, G27A, U28C, A29C, A31G
# DNA 1: CAATCTGAATTCCGGTCTCCC
# DNA 2: TGGTGGCTACGACGGGATT
# B19: CUAACUC (DNA:RNA)
# RNA: B2 RNA with G27A, U28A, A29C, A31C
# DNA 1: CAATCTGAATTCCGGTCTCCC
# DNA 2: TGGTGGCTACGACGGGATT
# B20: AGCUAAG (DNA:RNA)
# RNA: B2 RNA with C25A, U26G, G27C, U30A, A31G
# DNA 1: CAATCTGAATTCCGGTCTCCC
# DNA 2: TGGTGGCTACGACGGGATT
# B21: GUAGACC (DNA:RNA)
# RNA: B1 RNA with G26U, C27A, C29A
# DNA 1: CAATCTGAATTCCGGTCTCCC
# DNA 2: TGGTGGCTACGACGGGATT
# B22: CUAGUCG (DNA:RNA)
# RNA: B2 RNA with G27A, U28G, A29U, U30C, A31G
# DNA 1: CAATCTGAATTCCGGTCTCCC
# DNA 2: TGGTGGCTACGACGGGATT
# B23: CAAUGGU (DNA:RNA)
# RNA: B2 RNA with U26A, G27A, A29G, U30G, A31U
# DNA 1: CAATCTGAATTCCGGTCTCCC
# DNA 2: TGGTGGCTACGACGGGATT
# B24: GCGACAG (DNA:RNA)
# RNA: B1 RNA with G26C, C27G, G28A, C30A, C31G
# DNA 1: CAATCTGAATTCCGGTCTCCC
# DNA 2: TGGTGGCTACGACGGGATT
# B25: GCUAGCG (DNA:RNA)
# RNA: B1 RNA with G26C, C27U, G28A, C29G, C31G
# DNA 1: CAATCTGAATTCCGGTCTCCC
# DNA 2: TGGTGGCTACGACGGGATT
# B26: CGAGCGA (DNA:RNA)
# RNA: B1 RNA with G25C, C27A, C30G, C31A
# DNA 1: CAATCTGAATTCCGGTCTCCC
# DNA 2: TGGTGGCTACGACGGGATT
# B27: AACCCAU (DNA:RNA)
# RNA: B1 RNA with G25A, G26A, G28C, C30A, C31U
# DNA 1: CAATCTGAATTCCGGTCTCCC
# DNA 2: TGGTGGCTACGACGGGATT
# B28: AAGGUUC (DNA:RNA)
# RNA: B2 RNA with C25A, U26A, U28G, A29U, A31C
# DNA 1: CAATCTGAATTCCGGTCTCCC
# DNA 2: TGGTGGCTACGACGGGATT
# B29: AUCUUGG (DNA:RNA)
# RNA: B2 RNA with C25A, G27C, A29U, U30G, A31G
# DNA 1: CAATCTGAATTCCGGTCTCCC
# DNA 2: TGGTGGCTACGACGGGATT
# B30: UCGUUAG (DNA:RNA)
# RNA: B2 RNA with C25U, U26C, A29U, U30A, A31G
# DNA 1: CAATCTGAATTCCGGTCTCCC
# DNA 2: TGGTGGCTACGACGGGATT
# B31: AUCAUCG (DNA:RNA)
# RNA: B1 RNA with G25A, G26U, G28A, C29U, C31G
# DNA 1: CAATCTGAATTCCGGTCTCCC
# DNA 2: TGGTGGCTACGACGGGATT
# Molecular target: T1, RBFOX1 RRM
# Test: EMSA; HiTS-Eq, 1 nM pool, 10 min; buffer printed only for the single-RNA assays: 10 mM Tris pH 7.5, 150 mM NaCl, 3.4 mM EDTA, 0.001% NP-40, 30 C
# Details: tags: His6 N-terminal (pET28a); label: 5' 32P
# In short: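 Purified RbFox RRM, wild type or mutant, was incubated for 10 min in 50 µL with 1 nM of a 5′-radiolabelled RNA pool carrying 7 randomized nucleotides, whose flanks were annealed to DNA oligonucleotides, over a series of increasing protein concentrations. Unbound RNA was resolved on 8% native PAGE, cut out, reverse-transcribed, barcoded by PCR and sequenced on an Illumina HiSeq 2500. Relative association constants were derived from changes in read counts for each RNA species versus the control reaction and normalised to the cognate motif.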
row,Binder,binding signal
1,B1,0.00325 KA relative to UGCAUGU
2,B2,0.00639 KA relative to UGCAUGU
3,B3,0.0204 KA relative to UGCAUGU
4,B4,0.0154 KA relative to UGCAUGU
5,B5,0.00456 KA relative to UGCAUGU
6,B6,0.01 KA relative to UGCAUGU
7,B7,0.00169 KA relative to UGCAUGU
8,B8,0.00514 KA relative to UGCAUGU
9,B9,0.00518 KA relative to UGCAUGU
10,B10,0.0312 KA relative to UGCAUGU
11,B11,0.000379 KA relative to UGCAUGU
12,B12,0.00507 KA relative to UGCAUGU
13,B13,0.0129 KA relative to UGCAUGU
14,B14,0.0121 KA relative to UGCAUGU
15,B15,0.0166 KA relative to UGCAUGU
16,B16,0.0137 KA relative to UGCAUGU

row,Binder,binding signal
1,B17,0.00449 KA relative to UGCAUGU
2,B18,0.0127 KA relative to UGCAUGU
3,B19,0.00388 KA relative to UGCAUGU
4,B20,0.00985 KA relative to UGCAUGU
5,B21,0.00522 KA relative to UGCAUGU
6,B22,0.00925 KA relative to UGCAUGU
7,B23,0.0107 KA relative to UGCAUGU
8,B24,0.0128 KA relative to UGCAUGU
9,B25,0.0161 KA relative to UGCAUGU
10,B26,0.0122 KA relative to UGCAUGU
11,B27,0.00045 KA relative to UGCAUGU
12,B28,0.0106 KA relative to UGCAUGU
13,B29,0.0117 KA relative to UGCAUGU
14,B30,0.0174 KA relative to UGCAUGU
15,B31,0.00368 KA relative to UGCAUGU
